Results from the supplement of paper PMC11741623.
The list shows a part of the results. Interaction screen of human proteins with wild-type SARS-CoV-2 proteins by split-DHFR complementation in yeast, 1 µg/mL methotrexate. Value = fitness of the pair (three or more lineages) minus that of the viral protein without a human partner, on a scale set by negative (0) and fused positive (1) controls, mean of up to three cultures; higher = more likely to interact. Active = false discovery rate below 0.05 (one-sided t-test) in at least one culture. Nearly all pairs are not hits, and differences among them are mostly noise (correlation between cultures about 0.3); most hits were seen in one culture only. Human sequences are the Swiss-Prot entries looked up by gene name; the clone may be another isoform. NSP2 values were corrected by the authors for a growth advantage. Listed are human proteins with a hit and a random twelfth of the others.

B1: ATP5J, P18859 (protein)
chain: MILQRLFRFSSVIRSAVSVHLRRNIGVTAVAFNKELDPIQKLFVDKIREYKSKRQTSGGPVDASSEYQQELERELFKLKQMFGNADMNTFPTFKFEDPKFEVIEKPQA
B2: BAGE, Q13072 (peptide)
chain: MAARAVFLALSAQLLQARLMKEESPVVSWRLEPEDGTALCFIF
B3: C3orf25, Q6NXP0 (protein)
chain: MDDDYEAYHSLFLSLLGLCPSKTPINENAPVFDPEPVIAHCFKQFQQKDFRLPQTRRRIIMVPRKEDQTPLNPASQPQAPPKPIPSFKVLEARDIQEQPEDRKTWLSQRSKLRQELESFGDVKRWLENKPSITPSEAKVLHMIHEEQSAQPNASQATTRTTRKKAPRLSRLSRQMVPQLQLPEPPALSVMYSYLHSRKIKILEIFHKVGQGENQRITREEFIAAVKAVGVPLKNQEVEDIVIYLSSLGKHNTITMDILANTYKQWSMAQQRSSLATAREHYILAKHRDSLKGPLKKQEVDSAPQLPKVDLLTVPAVDTQMETRPMTLEEMEEVGKRYRERQRQHKLTIPSIQYTEQCHLVRCGNRHFDEHCLPSTIHGDMRELIDSARRHNFLVYLQCWKLCKSYGLPLTEDILMKALLYPGDKIIFQMDKVCPIRQPGGYYSDWKVFSPNLALLRSQGPGKSKRTDKKTPKKSKKMRFKEFEEFTRKLKVKRSSGLQQTHPNSFWPGHLLDKLQLYLPTVATDRSLALFSCVQHQPHVYPATYHPDHWWPLRNKNYMTHAHYDAAKVYYIN
B4: C7orf13, Q8NI28 (protein)
chain: MLASPARPTLRMLANHALSTPHCACSPAPAPRTASASRRRCVPVEARAAGVFGDRLAGVFGSRGLKHGGVQAPRPRVVRAEPRAGFAVVRSPRRLCGRSHAPQPPAHLGLGPGCFPAVAVVVPVPGSRAHRPFAALLVEGSFLGDPPIPPRRSGVLARGSAGADCLASSVTPGPSLWIPLLLVAGCVSCFVGLAVCVWMQARVSPAWPAGLFLLPR

Each binder was assayed against SARS-CoV-2 E (assay: yeast fitness gain over the viral ORF with no human partner (scaled fitness); higher = more likely to interact).
Protocol: (§1)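 Split mouse DHFR complementation in pooled diploid yeast: human ORFeome clones carry one fragment and viral ORFs the other; barcoded lineages compete in 1 µg/mL methotrexate and fitness is read by barcode sequencing in up to three cultures.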
With B1 the yeast fitness gain was inactive: 0.0922. With B2 the yeast fitness gain was inactive: 0.0129. In the case of B3, the yeast fitness gain is reported as inactive: 0.0407. For B4, the yeast fitness gain was inactive: 0.0739.

Each binder was assayed against SARS-CoV-2 M in the same assay as above.
Protocol: as §1
With B1 the yeast fitness gain was inactive: 0.0259. With B2 the yeast fitness gain was inactive: -0.0301. In the case of B3, the yeast fitness gain is reported as inactive: 0.00467. For B4, the yeast fitness gain was inactive: 0.0375.

These binders were tested against SARS-CoV-2 N in the same assay as above.
Protocol: as §1
For B1, the yeast fitness gain was inactive: 0.16. With B2 the yeast fitness gain was inactive: 0.119. For B3, the yeast fitness gain was inactive: 0.0621. For B4, the yeast fitness gain was inactive: 0.0646.

The binders below were run against SARS-CoV-2 NSP1 in the same assay as above.
Protocol: as §1
In the case of B1, the yeast fitness gain is reported as inactive: 0.0295. For B2, the yeast fitness gain was inactive: 0.021. For B3, the yeast fitness gain was inactive: -0.0191. For B4, the yeast fitness gain was inactive: -0.0167.

These binders were tested against SARS-CoV-2 NSP10 in the same assay as above.
Protocol: as §1
In the case of B1, the yeast fitness gain is reported as inactive: -0.00336. In the case of B2, the yeast fitness gain is reported as inactive: -0.028. In the case of B3, the yeast fitness gain is reported as inactive: 0.017. In the case of B4, the yeast fitness gain is reported as inactive: 0.0019.

These binders were tested against SARS-CoV-2 NSP12 in the same assay as above.
Protocol: as §1
In the case of B1, the yeast fitness gain is reported as inactive: 0.0287. With B2 the yeast fitness gain was inactive: 0.0377. In the case of B3, the yeast fitness gain is reported as inactive: 0.0377. For B4, the yeast fitness gain was inactive: 0.0492.

Each binder was assayed against SARS-CoV-2 NSP13 in the same assay as above.
Protocol: as §1
In the case of B1, the yeast fitness gain is reported as inactive: 0.0411. With B2 the yeast fitness gain was inactive: 0.00961. With B3 the yeast fitness gain was inactive: 0.0131. In the case of B4, the yeast fitness gain is reported as inactive: 0.03.

What follows are binders tested against SARS-CoV-2 NSP14 in the same assay as above.
Protocol: as §1
With B1 the yeast fitness gain was inactive: 0.0997. B2 was tested, and the yeast fitness gain was inactive: -0.0757. In the case of B3, the yeast fitness gain is reported as inactive: 0.16. With B4 the yeast fitness gain was inactive: -0.35.

Each binder was assayed against SARS-CoV-2 NSP2 in the same assay as above.
Protocol: as §1
B1 was tested, and the yeast fitness gain was inactive: -0.105. In the case of B2, the yeast fitness gain is reported as inactive: -0.101. For B3, the yeast fitness gain was inactive: -0.162. For B4, the yeast fitness gain was inactive: -0.0924.

The binders below were run against SARS-CoV-2 NSP4 in the same assay as above.
Protocol: as §1
With B1 the yeast fitness gain was inactive: 0.0226. With B2 the yeast fitness gain was inactive: -0.0449. In the case of B3, the yeast fitness gain is reported as inactive: 0.0357. For B4, the yeast fitness gain was inactive: 0.00744.

The binders below were run against SARS-CoV-2 NSP5 in the same assay as above.
Protocol: as §1
With B1 the yeast fitness gain was inactive: 0.0625. For B2, the yeast fitness gain was inactive: -0.00268. For B3, the yeast fitness gain was inactive: 0.00364. In the case of B4, the yeast fitness gain is reported as inactive: 0.00683.

Each binder was assayed against SARS-CoV-2 NSP6 in the same assay as above.
Protocol: as §1
B1 was tested, and the yeast fitness gain was inactive: 0.0441. With B2 the yeast fitness gain was inactive: 0.042. In the case of B3, the yeast fitness gain is reported as inactive: 0.0436. B4 was tested, and the yeast fitness gain was inactive: 0.0509.

What follows are binders tested against SARS-CoV-2 NSP7 in the same assay as above.
Protocol: as §1
For B1, the yeast fitness gain was inactive: -0.168. For B2, the yeast fitness gain was inactive: 0.0198. B3 was tested, and the yeast fitness gain was inactive: 0.0563. For B4, the yeast fitness gain was inactive: -0.00513.

What follows are binders tested against SARS-CoV-2 NSP8 in the same assay as above.
Protocol: as §1
In the case of B1, the yeast fitness gain is reported as inactive: -0.107. B2 was tested, and the yeast fitness gain was inactive: -0.0271. B3 was tested, and the yeast fitness gain was inactive: 0.0235. B4 was tested, and the yeast fitness gain was inactive: -0.0371.

The binders below were run against SARS-CoV-2 NSP9 in the same assay as above.
Protocol: as §1
B1 was tested, and the yeast fitness gain was inactive: 0.0473. In the case of B2, the yeast fitness gain is reported as inactive: -0.0214. In the case of B3, the yeast fitness gain is reported as inactive: 0.00862. In the case of B4, the yeast fitness gain is reported as inactive: -0.0357.

Each binder was assayed against SARS-CoV-2 ORF10 in the same assay as above.
Protocol: as §1
With B1 the yeast fitness gain was inactive: 0.0162. B2 was tested, and the yeast fitness gain was inactive: 0.0118. With B3 the yeast fitness gain was inactive: -0.0102. With B4 the yeast fitness gain was inactive: 0.0392.

These binders were tested against SARS-CoV-2 ORF3B in the same assay as above.
Protocol: as §1
With B1 the yeast fitness gain was inactive: 0.0093. With B2 the yeast fitness gain was inactive: 0.00469. With B3 the yeast fitness gain was inactive: 0.00141. B4 was tested, and the yeast fitness gain was inactive: 0.00981.

What follows are binders tested against SARS-CoV-2 ORF7A in the same assay as above.
Protocol: as §1
B1 was tested, and the yeast fitness gain was inactive: 0.0696. For B2, the yeast fitness gain was inactive: 0.064. In the case of B3, the yeast fitness gain is reported as inactive: -0.0561. With B4 the yeast fitness gain was inactive: 0.0372.

What follows are binders tested against SARS-CoV-2 ORF7B in the same assay as above.
Protocol: as §1
B1 was tested, and the yeast fitness gain was inactive: -0.00135. For B2, the yeast fitness gain was inactive: 0.0411. In the case of B3, the yeast fitness gain is reported as inactive: -0.0123. For B4, the yeast fitness gain was inactive: 0.0347.

What follows are binders tested against SARS-CoV-2 ORF8 in the same assay as above.
Protocol: as §1
With B1 the yeast fitness gain was inactive: 0.018. With B2 the yeast fitness gain was inactive: 0.0467. B3 was tested, and the yeast fitness gain was inactive: 0.00314. In the case of B4, the yeast fitness gain is reported as inactive: 0.0366.

What follows are binders tested against SARS-CoV-2 ORF9B in the same assay as above.
Protocol: as §1
In the case of B1, the yeast fitness gain is reported as inactive: 0.0417. For B2, the yeast fitness gain was inactive: 0.0237. B3 was tested, and the yeast fitness gain was inactive: 0.0207. With B4 the yeast fitness gain was inactive: 0.0136.

Each binder was assayed against SARS-CoV-2 ORF9Bwu (the 73-codon ORF) in the same assay as above.
Protocol: as §1
For B1, the yeast fitness gain was inactive: -0.0994. With B2 the yeast fitness gain was inactive: 0.0257. B3 was tested, and the yeast fitness gain was inactive: 0.0322. B4 was tested, and the yeast fitness gain was inactive: 0.00208.

What follows are binders tested against SARS-CoV-2 S in the same assay as above.
Protocol: as §1
B1 was tested, and the yeast fitness gain was inactive: 0.109. In the case of B2, the yeast fitness gain is reported as inactive: 0.0336. B3 was tested, and the yeast fitness gain was inactive: 0.0758. For B4, the yeast fitness gain was inactive: 0.0503.

These binders were tested against SARS-CoV-2 NSP15 in the same assay as above.
Protocol: as §1
In the case of B2, the yeast fitness gain is reported as inactive: -0.058. For B3, the yeast fitness gain was inactive: 0.0963. B4 was tested, and the yeast fitness gain was inactive: 0.0426.

Each binder was assayed against SARS-CoV-2 NSP16 in the same assay as above.
Protocol: as §1
With B2 the yeast fitness gain was inactive: 0.0159. For B3, the yeast fitness gain was inactive: 0.0385. B4 was tested, and the yeast fitness gain was inactive: -0.189.

Each binder was assayed against SARS-CoV-2 ORF3A in the same assay as above.
Protocol: as §1
B2 was tested, and the yeast fitness gain was inactive: 0.038. In the case of B3, the yeast fitness gain is reported as inactive: 0.0985. In the case of B4, the yeast fitness gain is reported as inactive: 0.0779.

The binders below were run against SARS-CoV-2 ORF6 in the same assay as above.
Protocol: as §1
With B2 the yeast fitness gain was inactive: 0.002. With B3 the yeast fitness gain was inactive: 0.0214. In the case of B4, the yeast fitness gain is reported as inactive: 0.0463.
